Whole data set: some 33,000 sequences, median “E-score (-0.5 to 0.5)” near -0.012, cut for the highest 2% near 0.29. The list shows a part of the results.
The sequences below were run against T1, Ybr033w (UniProt P38073) (assay: PBM E-score (8-mer binding enrichment) (E-score (-0.5 to 0.5)); higher = stronger / more preferred TF binding; most listed sequences are background and not binding sites). Settings: protein concentration: 200 nM; construct: GST-full length.
T1 sequence: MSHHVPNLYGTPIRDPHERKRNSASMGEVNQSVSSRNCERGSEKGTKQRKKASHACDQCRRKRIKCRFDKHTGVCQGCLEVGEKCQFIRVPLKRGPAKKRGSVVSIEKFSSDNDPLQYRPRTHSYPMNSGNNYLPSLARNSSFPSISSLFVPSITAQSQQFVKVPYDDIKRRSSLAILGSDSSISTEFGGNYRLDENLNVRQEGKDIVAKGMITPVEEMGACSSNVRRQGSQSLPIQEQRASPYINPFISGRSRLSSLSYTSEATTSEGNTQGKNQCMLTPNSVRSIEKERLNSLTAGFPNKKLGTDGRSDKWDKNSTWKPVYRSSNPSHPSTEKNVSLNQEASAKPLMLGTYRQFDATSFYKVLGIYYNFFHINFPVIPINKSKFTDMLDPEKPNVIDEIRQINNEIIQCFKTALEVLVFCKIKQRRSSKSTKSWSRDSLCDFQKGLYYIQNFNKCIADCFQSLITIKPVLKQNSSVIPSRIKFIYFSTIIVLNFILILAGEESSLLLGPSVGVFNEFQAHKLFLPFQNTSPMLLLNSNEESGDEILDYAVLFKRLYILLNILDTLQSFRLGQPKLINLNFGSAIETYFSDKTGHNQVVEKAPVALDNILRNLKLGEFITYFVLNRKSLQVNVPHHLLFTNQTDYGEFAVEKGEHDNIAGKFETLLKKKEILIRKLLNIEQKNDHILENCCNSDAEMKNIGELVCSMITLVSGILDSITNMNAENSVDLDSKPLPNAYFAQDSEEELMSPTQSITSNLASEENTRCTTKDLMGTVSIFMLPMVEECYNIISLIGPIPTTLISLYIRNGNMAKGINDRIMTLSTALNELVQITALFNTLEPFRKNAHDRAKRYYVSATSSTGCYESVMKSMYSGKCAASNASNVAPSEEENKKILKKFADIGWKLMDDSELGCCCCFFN
Protocol: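 Universal 'all 10-mer' protein binding microarrays (Agilent AMADID 015681) probed with GST-tagged S. cerevisiae TFs (full-length or DBD) made by in vitro transcription/translation (PURExpress), about 100-200 nM. Bound TF was detected with fluorescent anti-GST. Each ungapped 8-mer (which stands for itself and its reverse complement) is scored by the PBM enrichment score (E-score), a modified Wilcoxon-Mann-Whitney statistic from -0.5 to +0.5, computed with the Universal PBM Analysis Suite. Scale: above 0.35 generally sequence-specific binding.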

Sequence | PBM E-score
AAATCACC | 0.243
AATCCGCT | 0.00276
GTCAAAGA | 0.133
GCACAGGA | -0.0603
CCCTGCGA | -0.224
CGTCGGCA | -0.101
CGTCGCAA | 0.0396
CGGCGTGA | -0.0361
AGGGTGCA | -0.179
CCTACCAA | 0.176
ATTCACGC | -0.107
ATGATGCC | -0.0229
AACCGGGC | -0.152
GAAGCCCA | -0.121
GATGTACC | 0.101
GACTACGA | -0.0491
AGCTGTAA | -0.00663
CCGGTGCA | -0.213
TATGGTCA | -0.0118
CTCATATC | -0.048
CCTTTGAG | -0.0839
CCGGCAGG | -0.317
CCCTTCAG | -0.197
ATCTCAGA | -0.0847
CACCGATA | 0.00975

Sequence | PBM E-score
AGTTATGG | 0.163
GATAGACC | -0.0938
CACCAGGC | -0.18
ATAAAAAC | 0.279
CACCTAAG | 0.0973
TATAAGGA | 0.224
TAAGTAGA | 0.0752
ATTGAGCC | 0.0581
CCTCCTAA | -0.217
CAGTTTGC | -0.0588
CATAAAGG | -0.0374
CAGTCTCC | -0.116
ATTGCCAC | 0.0272
AGCGATTA | 0.159
GAGCGTAC | -0.0539
GAACGTTC | -0.244
AGCCGAAG | 0.00274
CCGTGGCC | -0.356
CAGGACCA | -0.106
ATCCATGA | -0.0662
CTGAAAAG | -0.0156
CTGAGCAA | -0.0556
CCTTGCAC | 0.0587
AGGCTCCC | -0.316
CAGATCTC | -0.0913

Sequence | PBM E-score
ATTTAGGC | 0.117
ACCAAAAA | 0.332
AGCACACC | -0.206
AACCAAAC | -0.0349
GAGTGAAA | 0.129
GACGTCTC | -0.227
ATCGTGCC | -0.018
ATCTAGGG | 0.00893
TCCAACCA | 0.0305
ATTTGGGC | -0.0275
GCCGAGGC | -0.055
GGTTAAAC | 0.207
CGTAGTTC | -0.0769
GCAAACCA | 0.0602
ATCGCTTC | 0.0987
CTTAAGGC | -0.0414
AGCGAGAT | 0.114
CGAGCACG | -0.226
ACCCCGGT | -0.195
ATCCTAGG | -0.139
CCTACAGA | 0.00211
AATGGGGT | -0.1
CTGGAGCC | -0.285
GCCTCAAA | -0.0911
AACCAAGG | 0.0409

Sequence | PBM E-score
AAAGGCGT | -0.181
CTATGCCA | -0.0681
GCTAAACA | 0.0905
CTGCAGGC | -0.233
CAACCACG | -0.0262
GGTTATAA | 0.0379
CGAGGATA | 0.0747
AAGCCTAT | -0.02
GAAGCGAC | -0.0766
ATCGTGGA | -0.0367
CATGCCTC | -0.123
AGCCTTCG | -0.0874
CATGCTCA | 0.062
CTAGCGGC | -0.289
CAGGCAGA | -0.00645
GTAGCTAA | -0.0141
AGAGGGTG | -0.238
AACTGGTC | -0.0196
AGTAGGCC | -0.0607
GCCGCGTA | -0.00775
ATGCGCAA | -0.0357
ATTATCCC | 0.321
ACCAGCTA | -0.0658
ACTGCCCA | -0.109
CGTGAAAG | -0.0644

Sequence | PBM E-score
CCATAGGG | -0.0439
CTAAGTGC | -0.0998
CGTCATTC | 0.19
TGCAAGCA | -0.112
AGTCGTCG | -0.125
GTCTGCGA | -0.136
AGATGATC | 0.246
GCTCGCCA | 0.00146
GCCGCAGA | -0.153
CATTTCAG | -0.0263
ACTGGTAA | 0.162
GCTCCCAA | -0.155
AGCAGTTG | 0.0122
AAACGTGA | 0.12
GTCCGCCA | -0.0958
TTGCTAAA | 0.147
AATGCTTG | -0.0369
GCAGATGC | -0.222
GGCCACAC | -0.201
TCGTTGCA | -0.0454
AAGCCAAT | 0.102
CACAGGCG | -0.217
TAACAAAA | 0.278
ACATTGTA | 0.0832
CGGGCGTC | -0.192

Sequence | PBM E-score
CTCGATTA | 0.162
ATATGGCC | -0.133
GAAAACTA | 0.213
AGCTAAAT | 0.11
CGGAGAGC | -0.25
ACGTGGCT | -0.0732
GGAAACAC | -0.0424
AGAGTTGC | 0.0211
GCAAGGCA | -0.0315
AACACACG | 0.0131
AACGTTGA | 0.0657
CATACACC | -0.00987
TATGTTCA | 0.186
AGGCTGCC | -0.125
TGCACCAA | -0.104
CAAGGGTA | -0.265
ATTGCCTC | -0.029
CGATTGTA | 0.173
CGCGATCA | 0.0933
CCTATTAC | 0.0857
AATCCAAC | 0.163
GCGAATGA | 0.119
ACGTTTCT | 0.0498
CTCTCCAC | -0.243
AGGTGGTA | -0.0212

Sequence | PBM E-score
ACGACCCT | -0.175
CACCTCTG | -0.0826
CGCTTATA | 0.0551
CGACGAAC | -0.106
ACTTTCTG | 0.116
CGTCTTTC | -0.0258
CTGTGTCA | -0.203
AGATGCCC | -0.0869
AAGCAAAG | 0.0699
GCAGTAGA | -0.071
CACTCCAC | 0.063
AGACTCCT | -0.0341
ACGCTTCG | -0.14
CGCCGGCC | -0.334
TCACGAAA | 0.164
ATCTAGGC | -0.115
CAACCTGC | -0.27
ACTACCGC | -0.103
ACCGCGGC | -0.0548
CCCTTCGG | -0.154
AAGGCTCG | -0.126
TGCCTCAA | -0.0307
